Source: PubChem BioAssay AID1346428 (National Center for Advancing Translational Sciences (NCATS), 2018)
The campaign covered roughly 48,000 compounds. About 1,200 (2.5%) were called active. About 2% were inconclusive and are not listed.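 The calls were made as follows: active = activation of at least 60% and not above a set upper limit (about 1 call in 100 departs from these limits); inconclusive = activation of 40% to 60%, or above that upper limit; inactive = activation under 40%.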 This is one part of the list.

target: Probable G-protein coupled receptor 32 (Homo sapiens) (UniProt O75388); assay: qHTS for Agonists of Human Resolvin D1 Receptor DRV1; details: CHO-K1 GPR32 beta-arrestin PathHunter luminescence, 90 min; at 76.9 µM; hits give high values; zero percent set by DMSO-only wells; also: 0% is about no effect
In short: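 Agonism was scored as beta-arrestin recruitment to ProLink-fused GPR32 in stably transfected CHO-K1 cells, giving a chemiluminescent beta-Gal signal; compounds were incubated 90 min at 37 °C.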

Chain of UniProt O75388 (O75388 whole entry, looked up, the tested form may be a part): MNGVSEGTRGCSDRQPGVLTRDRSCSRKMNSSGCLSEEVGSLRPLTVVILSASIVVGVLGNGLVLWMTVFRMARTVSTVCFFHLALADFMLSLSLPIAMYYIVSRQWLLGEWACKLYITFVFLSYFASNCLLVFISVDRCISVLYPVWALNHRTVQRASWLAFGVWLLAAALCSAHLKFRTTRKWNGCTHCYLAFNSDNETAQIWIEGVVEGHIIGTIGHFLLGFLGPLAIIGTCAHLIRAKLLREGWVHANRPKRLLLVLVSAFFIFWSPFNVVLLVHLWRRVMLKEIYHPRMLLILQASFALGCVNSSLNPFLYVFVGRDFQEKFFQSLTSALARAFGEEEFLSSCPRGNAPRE

activation, active:
CC(=O)N1c2ccc(S(=O)(=O)NCCC(=O)Nc3ccc(Br)c(C)c3)cc2CC1C (stereo not drawn) 69.2%
CCN(CCCNC(=O)c1cc2c(Cl)nc3ccccc3c2s1)Cc1ccccc1 95.3%
CCOc1ccc(NC(=O)NCCN2CCN(c3cc(Cl)ccc3C)CC2)cc1 73%
O=C(NCCc1ccccc1)c1c[nH]c2ccc(S(=O)(=O)Nc3ccc(F)cc3F)cc2c1=O 100%
CO[C@@]1(NC(=O)C(C(=O)O)c2ccc(O)cc2)C(=O)N2C(C(=O)O)=C(CSc3nnnn3C)CO[C@@H]21 (stereo partly drawn) 63%

activation, inactive:
Cc1cc(C)cc(Oc2c(C(F)(F)F)oc3cc(OCC(=O)NC4CCCCC4)ccc3c2=O)c1 -1.07%
CCOC(=O)c1cc(-c2ccccc2)n(-c2cccc(C(=O)Nc3cc(OC)cc(OC)c3)c2)c1C -22.2%
CCOC(=O)c1sc(NC(=O)c2cc3nc(-c4ccccc4)cc(C(F)(F)F)n3n2)c(C(=O)OCC)c1C -22.4%
COc1cc(-c2nc(Cn3nnc(C(=O)Nc4ccc(C)cc4C)c3C)c(C)o2)cc(OC)c1OC -9.47%
Cc1oc(-c2ccccc2F)nc1CS(=O)(=O)CC(=O)NCCc1ccc(Cl)cc1 44.1%
COc1cccc2cc(-c3nnc(Nc4c(F)cccc4F)s3)c(=O)oc12 5.06%
CSc1ncc(C(=O)N2CCN(c3cc(Cl)ccc3C)CC2)c(C)n1 6.07%
CCCN(C(=O)CCc1nc(-c2ccc(OC)cc2)no1)c1ccccc1F 13.2%
COc1ccc(CC(=O)NCCc2csc3nc(-c4ccccc4F)nn23)cc1 42%
Cc1ccc(NC(=O)CN(C)S(=O)(=O)c2ccc3[nH]c4c(c3c2)CCCC4)c(Cl)c1 37.1%
COc1ccc(N2CCN(c3oc(-c4ccc(COc5cccc(C)c5)o4)nc3C#N)CC2)cc1 -15.8%
O=C(CSc1nc2c([nH]c3ccccc32)c(=O)n1-c1ccccc1)Nc1ccc2c(c1)OCCO2 -37.1%
COc1ccccc1C(=O)Nc1ccc(OCc2cc(=O)n3ccsc3n2)cc1 -14.1%
Cc1cccc(NC(=O)c2sc3nc(N4CCOCC4)c4c(c3c2N)CC(C)(C)OC4)c1 -13.9%
COc1ccc(NC(=O)Cn2ncc3c2-c2ccccc2OC3)cc1Cl 35.3%
CCOc1ccc(CCNC(=O)c2ccc(-n3c(C)cc4c3CCC(C)C4)cc2)cc1OCC (stereo not drawn) -11.3%
CC1=C(C(=O)Nc2ccc(C)cc2Cl)C2(CCCCCC2)OC1=O -14.9%
CCC(=O)c1cc2c(cc1NC(=O)c1ccccc1F)OCCO2 0.206%
CCN(CC)c1sc(S(=O)(=O)c2ccccc2)nc1S(=O)(=O)c1ccc(C)cc1 -27.4%
Cc1ccc(C)c2sc(N3CCN(C(=O)C(C)(C)C)CC3)nc12 29%
COc1ccc(N2CC(NC(=O)c3ccc(S(=O)(=O)N4CCOCC4)cc3)CC2=O)cc1OC (stereo not drawn) -2.89%
CCN(CC)CCNC(=O)Nc1ccc2c(c1)N(Cc1ccccc1)C(=O)c1ccccc1S2 -25.3%
CC(C)(C)c1ccc(-c2nc(SCC(=O)Nc3ccc(Cl)cc3)[nH]c(=O)c2C#N)cc1 2.51%
CC(=O)NCCn1c(SCC(=O)Nc2ccc(C)cc2)nc2ccccc2c1=O 13.9%
CCCCOc1cccc(C(=O)N(Cc2cccs2)c2ccc(OC)cc2)c1 -30.9%
CCCCNC(=O)C1CCC(CNS(=O)(=O)c2ccc(Cl)cc2)CC1 (stereo not drawn) -18.4%
CCc1ccc(S(=O)(=O)N(C(=O)Oc2ccccc2)c2ccc3oc(C)c(C(=O)OC)c3c2)cc1 -13.1%
COc1cccc(-n2c(-c3cccc(F)c3)nc3c(cnn3-c3ccc(C)cc3)c2=O)c1 -3.94%
Cc1c(-c2ccc(Cl)cc2)c(=O)oc2ccc(OC(=O)N3CCOCC3)cc12 4.65%
CCN(Cc1ccccc1)c1ncnc2c1nnn2C -13.1%
Cc1ccccc1CN1C(=O)c2ccccc2Sc2ccc(C(=O)NC3CCCC3)cc21 -12.6%
O=S(=O)(NCc1ccc(Cl)cc1)c1ccc(-c2cnc(C3CC3)o2)cc1 9.71%
COc1ccc(OC)c(/C=C/C(=O)Nc2ccc(C(=O)OCCC(C)C)cc2)c1 -10.2%
Cc1ccc(Cl)cc1-n1ncc2c(N3CCCCCC3)ncnc21 21.5%
CCCCN(CCCC)C(=O)C1CCN(S(=O)(=O)c2cccc3nsnc23)CC1 0.802%
COc1ccccc1CNC(=O)CC(c1ccc(OC)c(OC)c1)N1Cc2ccccc2C1=O (stereo not drawn) -0.0914%
CCc1cnc2c(c1SCC(=O)c1ccc(OC)cc1)c(=O)n(C)c(=O)n2C -5.26%
CCCC(=O)Nc1cc2nn(-c3ccc(OC)cc3)nc2cc1C 12.9%
CCOC(=O)c1c(Nc2ccc(C)c(C)c2)nnc(-c2ccccc2)c1-c1ccccc1 6.53%
Cc1ccc(C)c(OCC(=O)Nc2sc3c(c2C#N)CCCC3)c1C 6.99%
CCC1CCCCN1CCCNC(=O)c1ccc2c(c1)c(C)c(C)n2CC (stereo not drawn) -9.91%
Cc1cc(C)c(NC(=O)Cn2c(=O)n(CCC(C)C)c(=O)c3cccnc32)c(C)c1 12.2%
COc1ccc(-c2nn(C)c3sc(C(=O)NCCN(C)C)cc23)cc1OC 27.6%
COc1ccc(CNC(=O)CN2N=C(c3ccc(Cl)cc3)CCC2=O)cc1 -15%
COc1cccc(NC(=O)C2CCCN(c3ncnc4onc(-c5ccc(F)cc5)c34)C2)c1 (stereo not drawn) -25.3%
CCc1ccc(C(=O)c2cn(CC(=O)NCCc3ccccc3)c3nc(C)ccc3c2=O)cc1 46.9%
COc1ccc(C(=O)CC2(O)C(=O)N(Cc3ccccc3)c3ccc(Br)cc32)cc1 (stereo not drawn) -5.81%
COc1ccc(Cn2c(SCc3ccc(C(=O)NCc4ccc(C)cc4)cc3)nc3cccnc32)cc1 8.22%
O=C(NCCc1ccccc1)c1ccc2c(c1)N(Cc1ccc(Cl)cc1)C(=O)c1ccccc1S2(=O)=O -41.4%
Cc1ccc(N2CC(NC(=O)CCCc3ccccc3)CC2=O)cc1 (stereo not drawn) -2.16%
O=C(NCCSc1c[nH]c2ccccc12)c1ccc(Cl)cc1 -17.3%
Cc1ccc(C2=Nc3ccccc3N=C(c3ccc(F)cc3)C2)c(O)c1 -2.46%
CCN(c1ccccc1C)S(=O)(=O)c1nnc(NC(=O)c2ccc(OC)c(OC)c2)s1 6.34%
CCc1nc(SC)ncc1C(=O)NCc1cccc(Br)c1 -3.53%
Cc1cc(O)c2c(C)c(CC(=O)NCc3ccccc3Cl)c(=O)oc2c1 -15.3%
COc1ccc(CNC(=O)c2ccc(CN3C(=O)C(C)=C(c4ccc(C)cc4)S3(=O)=O)cc2)cc1 -11.7%
O=C(Cn1nc(Cc2cccnc2)c2ccccc2c1=O)N1CCN(c2ccccc2F)CC1 -67.7%
Cc1ccc(Cl)cc1N1CCN(c2nc3ccc(C(=O)c4ccccc4)cc3n3cnnc23)CC1 -2.77%
Cc1ccc(C)c(N2CCN(C(=O)C3CCC(CNS(=O)(=O)c4cccs4)CC3)CC2)c1 (stereo not drawn) 0.939%
CCC1CN(C(=O)N2CCC(C(=O)NCCc3ccc(OC)c(OC)c3)CC2)c2ccccc2O1 (stereo not drawn) -9.6%
CCOC(=O)N1CCc2c(sc3c2c(=O)n(-c2ccc(CC)cc2)c(=O)n3Cc2cccc(Cl)c2)C1 -13.8%
Cc1ccc(CNC(=O)CSc2c(C)cnc3c2c(=O)n(C)c(=O)n3C)cc1 19%
CC1CCN(S(=O)(=O)c2ccc3nc(NCc4ccc(N(C)C)cc4)ccc3c2)CC1 -17.6%
Cc1ccc(C)c(N2CCN(C(=O)c3cc4cc5ccc(C)cc5nc4o3)CC2)c1 9.24%
Cc1ccc(NC(=O)CN2C(=O)C(c3ccc(F)cc3)=NC23CCCCCC3)c(C)c1 -25%
CCCCOc1ccc(C2C(=O)N(C3CCCCC3)CC(=O)N2C2CCCCC2)cc1 (stereo not drawn) -1.21%
CCn1cc(C(=O)OCC(=O)Nc2cc(Cl)ccc2C)c(=O)c2ccc(C)nc21 0.0218%
C=CCc1cc(OC)c(O)c(C(=O)NCCO)c1 7.08%
CCc1cccc(NC(=O)Cn2c(=O)n(CCCCCC(=O)NCc3ccc(F)cc3)c(=O)c3sccc32)c1 10.2%
Cc1cccc(NC(=O)Nc2cccs2)c1C -19.3%
CCOC(=O)c1ccccc1NC(=O)CN(c1ccccc1)S(=O)(=O)c1ccc(OCC)cc1 3.67%
COc1ccc(C2C=C(c3ccccc3)Nc3nc(NC(C)=O)nn32)cc1 (stereo not drawn) 15%
CCn1nc(C)c2c(-c3ccccc3)cc(=O)n(C(C)C(=O)Nc3ccc(OC)c(OC)c3)c21 (stereo not drawn) -12.3%
Cc1ccc(C)c(NC(=O)Cn2ncc3c(C)n(Cc4ccc(F)cc4)c(C)c3c2=O)c1 -8.72%
CCCCCCc1c(C)c2c(cc(C)c3c(C)coc32)oc1=O 4.28%
Cc1cc(C)cc(NC(=O)Cn2nnc(-c3ccccc3F)n2)c1 14.2%
CC1=C(c2ccc(C)c(C)c2)S(=O)(=O)N(Cc2ccc(C(=O)NCc3ccccc3F)cc2)C1=O -0.87%
N#C/C(=C\c1ccc(O)cc1)C(=O)NCC1CCCO1 (stereo not drawn) -39.5%
